# Reference: the antibiotic and cytotoxicity screens of Wong et al. (2023)
# The list shows a part of the results.
# System: HSkMC (human skeletal muscle cells)
# Assay: cytotoxicity call (relative viability < 0.9)
# Conditions: 10 µM
row,SMILES,cytotoxicity call
1,C[C@H](CO)N1C[C@H](C)[C@@H](CN(C)C(=O)Nc2cccc3ccccc23)Oc2ccc(NC(=O)C3CCCCC3)cc2C1=O,inactive
2,N[C@@H](CC(=O)O)c1cccc(O)c1,inactive
3,C[C@@H]1CN([C@H](C)CO)S(=O)(=O)c2ccc(/C=C/c3ccccc3)cc2O[C@H]1CN(C)C(=O)CN1CCOCC1,inactive
4,CCCNC(=O)N1C[C@@H](O)COC[C@@H]2O[C@@H](CC(=O)NCc3ccncn3)CC[C@H]21,inactive
5,COCC(=O)N(C)C[C@H]1Oc2cc(C#Cc3cccnc3)ccc2S(=O)(=O)N([C@H](C)CO)C[C@H]1C,inactive
6,C[C@H]1CN([C@@H](C)CO)C(=O)c2cccc(NS(=O)(=O)c3cn(C)cn3)c2O[C@H]1CN(C)CC1CCCCC1,inactive
7,C[C@@H]1CCCCO[C@@H](CN(C)S(=O)(=O)c2ccc(F)cc2)[C@@H](C)CN([C@@H](C)CO)C(=O)c2cc(NS(C)(=O)=O)ccc2O1,inactive
8,C[C@@H]1CCCCO[C@H](CN(C)CC2CC2)[C@H](C)CN([C@H](C)CO)C(=O)c2cc(NC(=O)Nc3ccc(C(F)(F)F)cc3)ccc2O1,active
9,COCC(=O)N1C[C@H](C)[C@H](OC)CN(C)C(=O)c2cc(NC(=O)c3ccc(F)cc3)ccc2OC[C@H]1C,inactive
10,C[C@H](CO)N1C[C@H](C)[C@H](CN(C)Cc2ccc3c(c2)OCO3)Oc2c(NC(=O)C3CC3)cccc2C1=O,inactive
11,Cc1nn(C)cc1NC(=O)C[C@@H]1CC[C@@H]2[C@H](COc3ccc(NC(=O)C4CCOCC4)cc3C(=O)N2C)O1,inactive
12,COC1=C(OC)C(=O)C(CCCCCCCCCC[P+](c2ccccc2)(c2ccccc2)c2ccccc2)=C(C)C1=O,active
13,C[C@@H]1CCCCO[C@H](CN(C)CC2CC2)[C@@H](C)CN([C@H](C)CO)C(=O)c2cc(NC(=O)Nc3ccccc3)ccc2O1,inactive
14,C[C@H](CO)N1C[C@H](C)[C@H](CN(C)S(=O)(=O)c2ccc(F)cc2)Oc2ncc(-c3ccncc3)cc2C1=O,inactive
15,c1ccc2c(c1)Cn1nnnc1-2,inactive
16,C[C@H](CO)N1C[C@H](C)[C@H](CN(C)S(=O)(=O)c2ccccc2)OCCCC[C@H](C)Oc2ccc(NC(=O)Nc3ccccc3)cc2C1=O,inactive
17,C[C@@H]1CN([C@H](C)CO)C(=O)c2cc(NC(=O)Cc3ccccc3)ccc2O[C@H]1CN(C)Cc1ccc(Oc2ccccc2)cc1,inactive
18,Cn1cnc(S(=O)(=O)N[C@H]2C=C[C@@H](CC(=O)N3CCN(c4ccccc4)CC3)O[C@@H]2CO)c1,inactive
19,C[C@H]1CN([C@@H](C)CO)C(=O)c2cc(C#Cc3ccccc3)cnc2O[C@@H]1CN(C)C(=O)CCN1CCCCC1,inactive
20,CC(C)NC(=O)Nc1cccc2c1O[C@@H](CN(C)C(=O)NC1CCCCC1)[C@@H](C)CN([C@H](C)CO)C2=O,inactive

row,SMILES,cytotoxicity call
1,C[C@@H]1CCCCO[C@@H](CN(C)C(=O)Nc2cccc3ccccc23)[C@H](C)CN([C@H](C)CO)C(=O)c2cc(NS(=O)(=O)c3ccc(Cl)cc3)ccc2O1,inactive
2,CCS(=O)(=O)Nc1ccc2c(c1)C(=O)N(C)C[C@H](OC)[C@@H](C)CN(CCC(F)(F)F)[C@@H](C)CO2,inactive
3,C[C@H]1CN([C@@H](C)CO)C(=O)Cc2cc(NC(=O)Nc3ccc(C(F)(F)F)cc3)ccc2O[C@@H]1CN(C)Cc1ccc(C(=O)O)cc1,inactive
4,C[C@H]1CCCCO[C@H](CN(C)CC2CCCCC2)[C@@H](C)CN([C@@H](C)CO)C(=O)c2cc(NC(=O)Nc3ccc4c(c3)OCO4)ccc2O1,inactive
5,Nc1ccc(C(=O)N(CCO)CCO)cc1,inactive
6,Cc1ccc(S[C@]2(C(=O)O)CC(=O)N(Cc3cc(C(F)(F)F)cc(C(F)(F)F)c3)[C@@H]2c2ccc(CO)cc2I)cc1,inactive
7,C[C@@H]1CN([C@@H](C)CO)C(=O)c2cccc(NC(=O)c3ccc(-c4nccs4)cc3)c2O[C@H]1CN(C)Cc1ccc2c(c1)OCO2,inactive
8,COc1ccc(S(=O)(=O)N2C[C@@H](O)COC[C@@H]3O[C@@H](CC(=O)NCCCN(C)C)CC[C@H]32)cc1,inactive
9,C[C@@H](O)C#Cc1cnc2c(c1)C(=O)N([C@@H](C)CO)C[C@H](C)[C@H](CN(C)C(=O)CN1CCOCC1)O2,inactive
10,O=C(CS)NCCCCCCNC(=O)[C@@H]1C[C@@H]2C(=O)N[C@@H](Cc3ccccc3)C(=O)N2[C@@H]1c1cccc(OCCO)c1,inactive
11,C[C@@H]1CN([C@@H](C)CO)C(=O)c2cc(NS(C)(=O)=O)ccc2O[C@H]1CN(C)S(=O)(=O)c1cn(C)cn1,inactive
12,COc1ccc(S(=O)(=O)N(C)C[C@@H]2Oc3ccc(NS(=O)(=O)c4ccc(F)cc4)cc3CC(=O)N([C@H](C)CO)C[C@H]2C)cc1,inactive
13,C[C@H]1CN([C@@H](C)CO)C(=O)Cc2cc(NS(C)(=O)=O)ccc2O[C@@H]1CN(C)Cc1ccc2c(c1)OCO2,inactive
14,CCCCCCCC(=O)N[C@H](CN1CCCC1)[C@H](O)c1ccc2c(c1)OCCO2,inactive
15,COc1ccc(CN(C)C[C@@H]2Oc3c(NS(C)(=O)=O)cccc3C(=O)N([C@@H](C)CO)C[C@@H]2C)cc1,inactive
16,CC(=O)Nc1ccc(S(=O)(=O)NC(=O)Cn2nnc(COc3ccc(C)cc3)c2-c2ccccc2)cc1,inactive
17,C[C@@H]1CCCCO[C@@H](CN(C)C(=O)NC2CCCCC2)[C@@H](C)CN([C@H](C)CO)C(=O)c2cc(NC(=O)Cc3ccccc3)ccc2O1,inactive
18,Cl.Cl.NCCSSCCN,inactive
19,O=C(C[C@@H]1C[C@@H]2c3cc(NS(=O)(=O)c4ccc(F)cc4)ccc3O[C@@H]2[C@H](CO)O1)N1CCCCC1,inactive
